# The list shows a part of the results.
# B1: MGL (Homo sapiens), Q8IUN9 (protein)
# chain: MTRTYENFQYLENKVKVQGFKNGPLPLQSLLQRLCSGPCHLLLSLGLGLLLLVIICVVGFQNSKFQRDLVTLRTDFSNFTSNTVAEIQALTSQGSSLEETIASLKAEVEGFKQERQAGVSELQEHTTQKAHLGHCPHCPSVCVPVHSEMLLRVQQLVQDLKKLTCQVATLNNNASTEGTCCPVNWVEHQDSCYWFSHSGMSWAEAEKYCQLKNAHLVVINSREEQNFVQKYLGSAYTWMGLSDPEGAWKWVDGTDYATGFQNWKPGQPDDWQGHGLGGGEDCAHFHPDGRWNDDVCQRPYHWVCEAGLGQTSQESH
# Experiments:
# Experiment in all cases: glycan array binding signal (z-score within array); higher = stronger binding
# Details in all cases: glycan notation: IUPAC condensed, linker removed
# [1] = biological target: Gal(b1-4)GlcNAc(b1-3)Gal(b1-4)GlcNAc(b1-3)[Gal(b1-4)GlcNAc(b1-3)Gal(b1-4)GlcNAc(b1-6)]GalNAc
# Procedure, shortened: (§1)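 Glycan array data were curated from 3228 arrays in the Consortium for Functional Glycomics database and kept only where the protein sequence was available. Glycan names were converted to IUPAC-condensed notation, and columns mapping to the same glycan were averaged. The binding signal is a within-array Z-score, averaged across arrays of the same protein sequence at different concentrations or buffers and across linkers. Negative Z-scores can be read as non-binding.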
# [2] = biological target: Gal(b1-4)GlcNAc(b1-3)Gal(b1-4)GlcNAc(b1-6)[Gal(b1-3)]GalNAc
# Procedure, shortened: as §1
# [3] = biological target: Gal(b1-4)GlcNAc(b1-3)Gal(b1-4)[Fuc(a1-3)]GlcNAc(b1-3)Gal(b1-4)[Fuc(a1-3)]GlcNAc
# Procedure, shortened: as §1
# [4] = biological target: Gal(b1-4)GlcNAc(b1-3)GalNAc
# Procedure, shortened: as §1
# [5] = biological target: Gal(b1-4)GlcNAc(b1-3)[Fuc(a1-3)GlcNAc(b1-6)]Gal(b1-4)Glc
# Procedure, shortened: as §1
# [6] = biological target: Gal(b1-4)GlcNAc(b1-3)[Gal(b1-4)GlcNAc(b1-6)]Gal(b1-4)GlcNAc
# Procedure, shortened: as §1
# [7] = biological target: Gal(b1-4)GlcNAc(b1-3)[GlcNAc(b1-6)]Gal(b1-4)GlcNAc
# Procedure, shortened: as §1
# [8] = biological target: Gal(b1-4)GlcNAc(b1-6)Gal(b1-4)GlcNAc
# Procedure, shortened: as §1
# [9] = biological target: Gal(b1-4)GlcNAc(b1-6)GalNAc
# Procedure, shortened: as §1
# [10] = biological target: Gal(b1-4)GlcNAc(b1-6)[Gal(b1-3)]GalNAc
# Procedure, shortened: as §1
# [11] = biological target: Gal(b1-4)GlcNAc(b1-6)[Gal(b1-4)GlcNAc(b1-3)]GalNAc
# Procedure, shortened: as §1
# Gal(b1-4)GlcNAc6P = biological target: Gal(b1-4)GlcNAc6P
# Procedure, shortened: as §1
# Gal(b1-6)Gal = biological target: Gal(b1-6)Gal
# Procedure, shortened: as §1
# Gal3S(b1-3)GalNAc = biological target: Gal3S(b1-3)GalNAc
# Procedure, shortened: as §1
# Gal3S(b1-3)GlcNAc = biological target: Gal3S(b1-3)GlcNAc
# Procedure, shortened: as §1
# [12] = biological target: Gal3S(b1-3)[Fuc(a1-4)]GlcNAc
# Procedure, shortened: as §1
# Gal3S(b1-4)Glc = biological target: Gal3S(b1-4)Glc
# Procedure, shortened: as §1
# Gal3S(b1-4)Glc6S = biological target: Gal3S(b1-4)Glc6S
# Procedure, shortened: as §1
# Gal3S(b1-4)GlcNAc = biological target: Gal3S(b1-4)GlcNAc
# Procedure, shortened: as §1
# [13] = biological target: Gal3S(b1-4)[Fuc(a1-3)]Glc6S
# Procedure, shortened: as §1
# [14] = biological target: Gal3S(b1-4)[Fuc(a1-3)]GlcNAc
# Procedure, shortened: as §1
# [15] = biological target: Gal3S(b1-4)[Fuc(a1-3)]GlcNAc6S
# Procedure, shortened: as §1
# Gal3S4S(b1-4)GlcNAc = biological target: Gal3S4S(b1-4)GlcNAc
# Procedure, shortened: as §1
# Gal3S6S(b1-4)GlcNAc = biological target: Gal3S6S(b1-4)GlcNAc
# Procedure, shortened: as §1
# Gal3S6S(b1-4)GlcNAc6S = biological target: Gal3S6S(b1-4)GlcNAc6S
# Procedure, shortened: as §1
# Gal4S(b1-4)GlcNAc = biological target: Gal4S(b1-4)GlcNAc
# Procedure, shortened: as §1
# Gal4S6S(b1-4)GlcNAc = biological target: Gal4S6S(b1-4)GlcNAc
# Procedure, shortened: as §1
# Gal6P(b1-4)GlcNAc = biological target: Gal6P(b1-4)GlcNAc
# Procedure, shortened: as §1
# Gal6S(b1-3)GlcNAc = biological target: Gal6S(b1-3)GlcNAc
# Procedure, shortened: as §1
# Gal6S(b1-3)GlcNAc6S = biological target: Gal6S(b1-3)GlcNAc6S
# Procedure, shortened: as §1
# Gal6S(b1-4)Glc = biological target: Gal6S(b1-4)Glc
# Procedure, shortened: as §1
# Gal6S(b1-4)Glc6S = biological target: Gal6S(b1-4)Glc6S
# Procedure, shortened: as §1
# Gal6S(b1-4)GlcNAc = biological target: Gal6S(b1-4)GlcNAc
# Procedure, shortened: as §1
# Gal6S(b1-4)GlcNAc6S = biological target: Gal6S(b1-4)GlcNAc6S
# Procedure, shortened: as §1
# GalNAc(a1-3)Gal = biological target: GalNAc(a1-3)Gal
# Procedure, shortened: as §1
# GalNAc(a1-3)GalNAc = biological target: GalNAc(a1-3)GalNAc
# Procedure, shortened: as §1
# [16] = biological target: GalNAc(a1-3)GalNAc(b1-3)Gal(a1-4)Gal(b1-4)Glc
# Procedure, shortened: as §1
binder,measurement,setting,value
B1,glycan array binding signal (z-score),[1],-0.234
same,glycan array binding signal (z-score),[2],0.061
same,glycan array binding signal (z-score),[3],-0.243
same,glycan array binding signal (z-score),[4],-0.242
same,glycan array binding signal (z-score),[5],-0.248
same,glycan array binding signal (z-score),[6],-0.238
same,glycan array binding signal (z-score),[7],-0.254
same,glycan array binding signal (z-score),[8],-0.256
same,glycan array binding signal (z-score),[9],4.14
same,glycan array binding signal (z-score),[10],-0.21
same,glycan array binding signal (z-score),[11],-0.243
same,glycan array binding signal (z-score),Gal(b1-4)GlcNAc6P,-0.254
same,glycan array binding signal (z-score),Gal(b1-6)Gal,-0.266
same,glycan array binding signal (z-score),Gal3S(b1-3)GalNAc,-0.23
same,glycan array binding signal (z-score),Gal3S(b1-3)GlcNAc,-0.641
same,glycan array binding signal (z-score),[12],-0.237
same,glycan array binding signal (z-score),Gal3S(b1-4)Glc,-0.235
same,glycan array binding signal (z-score),Gal3S(b1-4)Glc6S,-0.239
same,glycan array binding signal (z-score),Gal3S(b1-4)GlcNAc,-0.247
same,glycan array binding signal (z-score),[13],-0.226
same,glycan array binding signal (z-score),[14],-0.237
same,glycan array binding signal (z-score),[15],-0.243
same,glycan array binding signal (z-score),Gal3S4S(b1-4)GlcNAc,-0.25
same,glycan array binding signal (z-score),Gal3S6S(b1-4)GlcNAc,-0.235
same,glycan array binding signal (z-score),Gal3S6S(b1-4)GlcNAc6S,-0.242
same,glycan array binding signal (z-score),Gal4S(b1-4)GlcNAc,-0.237
same,glycan array binding signal (z-score),Gal4S6S(b1-4)GlcNAc,-0.239
same,glycan array binding signal (z-score),Gal6P(b1-4)GlcNAc,-0.25
same,glycan array binding signal (z-score),Gal6S(b1-3)GlcNAc,-0.252
same,glycan array binding signal (z-score),Gal6S(b1-3)GlcNAc6S,-0.314
same,glycan array binding signal (z-score),Gal6S(b1-4)Glc,-0.247
same,glycan array binding signal (z-score),Gal6S(b1-4)Glc6S,-0.253
same,glycan array binding signal (z-score),Gal6S(b1-4)GlcNAc,-0.242
same,glycan array binding signal (z-score),Gal6S(b1-4)GlcNAc6S,-0.241
same,glycan array binding signal (z-score),GalNAc(a1-3)Gal,2.7
same,glycan array binding signal (z-score),GalNAc(a1-3)GalNAc,0.346
same,glycan array binding signal (z-score),[16],0.164

# Source: the supplement of paper PMC8728848
